# Measured values published in PubChem BioAssay (Tox21).
# Several values for one entry are separate records, joined by “and”; a condition that tells them apart may be missing. Equal values may be shown once. The shares of active, inactive and inconclusive entries below differ from those in the screen. Potencies of inconclusive entries are doubtful fits and often do not repeat. Activity calls are given as the source filed them. Unless noted, calls come from the whole dose curve; as a rule, active = well fitted curve in the direction sought with a large enough effect in the repeat runs; inconclusive = weak or mixed curves; inactive = no such curve, though single readings can be large; an effect the other way counts as inactive or inconclusive.
# Legend:
# [1] = target: Nuclear receptor subfamily 1 group I member 3 (Homo sapiens) (UniProt Q14994); assay: qHTS assay to identify small molecule agonists of the constitutive androstane receptor (CAR) signaling pathway (AID 1224839); note: nearly all actives have a fitted effect of over 15% in size;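 for activation: HepG2 cells stably carrying human CAR and a CYP2B6 luciferase reporter; % is set by controls: 0 for no effect and ±100 for the full control effect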
# How it was run: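 HepG2 cells stably co-transfected with hCAR and a CYP2B6-2.2kb luciferase reporter; compounds at 15 concentrations with 0.75 uM PK11195 present. After 24 hr at 37 C, luciferase read by ONE-Glo luminescence.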
# [2] = qHTS assay to identify small molecule antagonists of the estrogen related receptor signaling pathway with the pleiotropic PPARgamma coactivator (PGC) from Tox21 10K library (AID 1224841; call rule not given here; note: actives are mostly falling curves and most rising ones were filed inactive; nearly all actives have a fitted effect of over 50% in size)
# How it was run: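 Luminescence (One-Glo, 30 min at room temperature) after 18 h compound treatment at 37 C of PGC/ERR reporter cells plated at 2,000 cells/well and settled 6 h beforehand.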
# [3] = qHTS assay to identify small molecule agonists of H2AX (AID 1224845; active = well fitted activation curve with a large enough effect in the signal ratio in the repeat runs, not every such curve was filed as active; inconclusive = weak or mixed curves; the % refers to the signal ratio); details: CHO-K1 phospho-H2AX Ser139 HTRF, 3 h; activation (H2AX phosphorylation): at 154 µM (top of the series) unless noted
# How it was run: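 Phospho-H2AX Ser139 measured by HTRF (ex 320 nm; em 665 and 620 nm) after 24 hr antibody incubation. Compounds, 15 concentrations, 0.76% DMSO, were applied to CHO-K1 cells for 3hr at 37C before lysis.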
# [4] = qHTS assay to identify small molecule agonists of the hypoxia (HIF-1) signaling pathway (AID 1224846; active = well fitted activation curve with a large enough effect in the signal ratio in the repeat runs, not every such curve was filed as active; inconclusive = weak or mixed curves; the % refers to the signal ratio; for activation: % is set by controls: 0 for no effect and ±100 for the full control effect); details: HRE-bla ME-180 cells, beta-lactamase ratio, 17 h; activation: at 76.8 µM (top of the series) unless noted
# How it was run: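 Compounds added to ME-180 cells carrying hypoxia-response-element beta-lactamase reporter (0.5% dialyzed FBS, 5 h preplating), 17 h at 37C; agonist activity detected by CCF4-AM B/G FRET read-out.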
# [5] = qHTS assay to identify small molecule agonists of the estrogen related receptor signaling pathway with the pleiotropic PPARgamma coactivator (PGC) from Tox21 10K library (AID 1224842); note: nearly all actives have a fitted effect of over 15% in size; for activation: % is set by controls: 0 for no effect and ±100 for the full control effect
# How it was run: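 Luminescence from One-Glo (30 min, room temperature) measured after PGC/ERR cells had 18 h at 37 C with pinned compound (23 nL in DMSO). Cells had been seeded at 2,000 per well and pre-incubated 6 h.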
# [6] = qHTS assay to identify small molecule agonists of H2AX - cell viability counter screen (AID 1224847; calls by dose curve; note: nearly all actives have a fitted effect of over 30% in size)
# How it was run: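 CHO-K1 cells plated overnight at 37C, then exposed 3 h at 37C to compounds at 15 concentrations (0.76% DMSO final). Viability by CellTiter-Glo luminescence after 30 min at room temperature.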
# [7] = target: Thyrotropin receptor (Homo sapiens) (UniProt P16473); assay: qHTS assay to identify small molecule agonists of the thyroid stimulating hormone receptor (TSHR) signaling pathway (AID 1224843; calls by dose curve; note: nearly all actives have a fitted effect of over 45% in size; for activation: % is set by controls: 0 for no effect and ±100 for the full control effect); details: TSHR-HEK293 cells, cAMP HTRF, agonist mode, 30 min
# How it was run: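 Agonist activity read as cAMP rise via d2/cryptate HTRF competition, 1 h room-temperature detection, in HEK293 cells expressing TSHR. Fifteen-point titrations, each run in triplicate, with a 30 min room-temperature incubation beforehand.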
# [8] = qHTS assay to identify small molecule agonists of the hypoxia (HIF-1) signaling pathway - cell viability counter screen (AID 1224844; calls by dose curve; note: nearly all actives have a fitted effect of over 50% in size)
# How it was run: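 Cytotoxicity measured by CellTiter-Glo ATP luminescence in the wells also read for beta-lactamase signal. Cells were HRE-bla ME-180 (2,000/well, 0.5% dialyzed FBS), exposed to compounds for 17 h at 37C.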
# [9] = qHTS assay to identify small molecule antagonists of the estrogen related receptor signaling pathway with the pleiotropic PPARgamma coactivator (PGC) from Tox21 10K library - cell viability counter screen (AID 1224840; active = well fitted cell-killing curve with a large enough effect in the repeat runs, not every such curve was filed as active; inconclusive = weak or mixed curves, or effect the other way; inactive = no such curve, though single readings can be large or run the other way; note: nearly all actives have a fitted effect of over 40% in size)
# How it was run: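 Counter-screen for cytotoxicity: after 17.5 h compound exposure at 37 C, CellTiter-Fluor reagent added to PGC/ERR cells for 30 min and fluorescence read. Cells were seeded at 2,000 per well 6 h before dosing.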
# [10] = activation: at 92.4 µM (top of the series) unless noted
# Potency is the fitted concentration of half-maximal effect; tags give direction and shape of the fitted curve or compound fluorescence and quenching.
# Sequence of UniProt P16473 (P16473 whole entry, looked up): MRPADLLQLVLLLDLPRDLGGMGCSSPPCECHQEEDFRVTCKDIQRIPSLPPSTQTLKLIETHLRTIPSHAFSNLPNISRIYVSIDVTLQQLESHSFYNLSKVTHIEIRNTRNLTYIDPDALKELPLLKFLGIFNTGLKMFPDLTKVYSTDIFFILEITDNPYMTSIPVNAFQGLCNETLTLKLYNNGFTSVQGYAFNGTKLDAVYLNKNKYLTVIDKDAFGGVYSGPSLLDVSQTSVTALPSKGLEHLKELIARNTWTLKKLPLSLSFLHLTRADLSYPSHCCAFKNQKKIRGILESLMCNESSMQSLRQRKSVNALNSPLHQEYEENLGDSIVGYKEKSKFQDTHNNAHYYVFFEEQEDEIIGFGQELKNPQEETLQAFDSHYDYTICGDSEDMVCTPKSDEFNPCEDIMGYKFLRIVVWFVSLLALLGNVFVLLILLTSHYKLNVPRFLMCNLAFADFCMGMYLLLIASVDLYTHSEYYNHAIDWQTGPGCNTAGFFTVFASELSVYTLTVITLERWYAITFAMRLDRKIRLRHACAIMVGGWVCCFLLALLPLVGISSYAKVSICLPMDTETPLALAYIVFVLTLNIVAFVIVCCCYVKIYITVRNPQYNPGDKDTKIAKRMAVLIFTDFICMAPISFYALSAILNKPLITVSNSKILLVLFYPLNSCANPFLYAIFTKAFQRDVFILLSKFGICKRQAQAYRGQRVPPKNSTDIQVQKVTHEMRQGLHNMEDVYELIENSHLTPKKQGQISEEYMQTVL
# Sequence of UniProt Q14994 (Q14994 whole entry, looked up): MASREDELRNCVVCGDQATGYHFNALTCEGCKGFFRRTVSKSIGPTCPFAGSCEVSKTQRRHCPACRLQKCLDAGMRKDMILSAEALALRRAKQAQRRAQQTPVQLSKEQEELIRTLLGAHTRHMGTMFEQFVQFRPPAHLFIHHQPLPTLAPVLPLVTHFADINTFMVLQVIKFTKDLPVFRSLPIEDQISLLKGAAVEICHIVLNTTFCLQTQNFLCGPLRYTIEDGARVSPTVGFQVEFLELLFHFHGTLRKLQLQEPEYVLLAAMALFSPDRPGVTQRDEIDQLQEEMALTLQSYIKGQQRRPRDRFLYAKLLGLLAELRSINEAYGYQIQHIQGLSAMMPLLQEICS
compound,measurement,setting,value
Fc1cccc(Cl)c1CCl,Potency,[1],"inconclusive: 68.6 µM [activator, partial curve, poor fit]"
ClCCCCCCCl,Potency,[1],inactive
O=c1oc2ccccc2c(O)c1Cc1c(O)c2ccccc2oc1=O,Potency,[1],"inconclusive: 33.5 µM [activator, single point]"
same,Potency,[2],"inconclusive: 18.8 µM [falling, single point]"
same,Potency,[3],inconclusive: 24.7 µM [full curve]
same,Potency,[4],inconclusive: 9.52 µM
c1ccc2c(c1)Nc1ccccc1S2,Potency,[1],"inconclusive: 26.6 µM [activator, partial curve]"
same,Potency,[5],inconclusive: 27.3 µM [activator]
same,Potency,[3],"inconclusive: 35.7 µM [cytotoxic, full curve] and inconclusive: 27.7 µM [partial curve]"
same,Potency,[4],"inconclusive: 0.001 µM [falling, full curve]"
same,Potency,[6],"inconclusive: 56.6 µM [cytotoxic, partial curve]"
Cc1ccc(N)cc1N,Potency,[1],"inconclusive: 34.4 µM [activator, partial curve]"
same,Potency,[5],"inconclusive: 59.5 µM [activator, partial curve]"
same,Potency,[7]; [10],"inconclusive: 24.3 µM [activator, single point]"
same,activation,[7]; [10],inconclusive: 7.5%
COc1ccc(C(=O)N2CCCC2=O)cc1,Potency,[1],inactive
same,Potency,[7]; [10],inactive
Nc1ccccc1C(=O)O,Potency,[1],inactive
same,Potency,[5],inactive
C=CCOC(=O)c1ccccc1N,Potency,[1],"inconclusive: 61.5 µM [activator, partial curve]"
same,Potency,[2],inactive
same,Potency,[6],"inconclusive: 128 µM [cytotoxic, partial curve, poor fit]"
CC1C=[C-]C=C1.[C-]#[O+].[C-]#[O+].[C-]#[O+].[Mn],Potency,[1],"inconclusive: 68.6 µM [activator, partial curve, poor fit] and inconclusive: 34.1 µM [activator, partial curve]"
same,activation,[7]; [10],inconclusive: -33.2%
CC1(C)[C@H](C=C(Cl)Cl)[C@@H]1C(=O)O[C@@H](C#N)c1cccc(Oc2ccccc2)c1,Potency,[1],"inconclusive: 21.7 µM [activator, partial curve]"
same,activation,[7]; [10],inconclusive: -13.3%
CC1CN1 (stereo not given),Potency,[1],inactive
same,Potency,[7]; [10],inactive
COC(C)(C)CCCC(C)C/C=C/C(C)=C/C(=O)OC(C)C (stereo not given),Potency,[1],"inconclusive: 53.6 µM [activator, partial curve]"
same,activation,[7]; [10],inconclusive: -31.3%
same,activation,[7]; at 42.5 µM (top of the series),inactive: -5.11%
same,Potency,[6],"inconclusive: 125 µM [cytotoxic, partial curve, poor fit]"
O=C(Cl)c1ccccc1,Potency,[1],inactive
same,Potency,[7]; [10],inactive
N#CC(c1ccccc1)c1ccccc1,Potency,[1],"inconclusive: 68.5 µM [activator, partial curve, poor fit] and inactive"
same,Potency,[7]; [10],"inconclusive: 17.2 µM [inhibitor, full curve]"
CSC(=O)c1c(C(F)F)nc(C(F)(F)F)c(C(=O)SC)c1CC(C)C,Potency,[1],"inconclusive: 48.3 µM [activator, partial curve]"
same,activation,[7]; [10],inconclusive: 45.6%
CCCCN(CC)c1c([N+](=O)[O-])cc(C(F)(F)F)cc1[N+](=O)[O-],Potency,[1],"inconclusive: 34.9 µM [activator, partial curve] and inconclusive: 54.5 µM [activator, partial curve, poor fit]"
same,Potency,[7]; [10],active: 8.77 µM and active: 12.2 µM
N#CC(C#N)=C(C#N)C#N,Potency,[1],"inconclusive: 28.5 µM [activator, partial curve]"
same,Potency,[2],active: 1.8 µM
CC(Cc1ccc(OCC(=O)O)cc1)NCC(O)c1csc(C(F)(F)F)n1 (stereo not given),Potency,[1],inactive
same,Potency,[2],inactive
CC(C)(Cl)[N+](=O)[O-],Potency,[1],inactive
same,Potency,[2],"inconclusive: 48.8 µM [falling, partial curve]"
O=C1CN=C(c2ccccc2)c2cc(Cl)ccc2N1CC1CC1,Potency,[1],inconclusive: 57.2 µM [activator]
same,Potency,[2],active: 25.5 µM
same,Potency,[5],inactive
same,Potency,[6],active: 94.2 µM
COP(=S)(Oc1cc(Cl)c(Br)cc1Cl)c1ccccc1 (stereo not given),Potency,[1],active: 30.6 µM
same,Potency,[2],active: 54.5 µM
same,activation,[7]; [10],inconclusive: -24.2%
same,Potency,[8],"inconclusive: 21.9 µM [rising, single point]"
same,Potency,[6],"inconclusive: 89.8 µM [cytotoxic, partial curve]"
C#CCOC(C(=O)OCCN(C)C)(c1ccccc1)c1ccccc1,Potency,[1],"inconclusive: 21.1 µM [activator, partial curve]"
same,Potency,[7]; [10],"inconclusive: 26.6 µM [activator, partial curve]"
Nc1ccc(Cl)cc1C(=O)c1ccccc1F,Potency,[1],active: 23.7 µM
same,Potency,[2],inactive
same,Potency,[5],"inconclusive: 26.6 µM [activator, partial curve]"
O=[N+]([O-])c1c2ccccc2cc2ccccc12,Potency,[1],active: 21.4 µM
same,Potency,[5],"inconclusive: 42.7 µM [activator, partial curve]"
same,Potency,[8],"inconclusive: 60.9 µM [cytotoxic, single point]"
same,Potency,[3],"inconclusive: 112 µM [activator, single point]"
same,Potency,[4],inconclusive: 60.9 µM
same,Potency,[6],"inconclusive: 2.5 µM [cytotoxic, single point]"
CNC(=O)O/N=C(/CSC)C(C)(C)C,Potency,[1],"inconclusive: 68.6 µM [activator, partial curve, poor fit]"
same,Potency,[9],inactive
same,Potency,[6],inactive
O=C(CBr)Nc1ccc(Cl)cc1C(=O)c1ccccc1F,Potency,[1],active: 26.6 µM
same,Potency,[2],inactive
same,Potency,[4],"inconclusive: 19 µM [falling, partial curve]"
Nc1ccc(Sc2ccc(N)cc2)cc1,Potency,[1],active: 34.4 µM
same,Potency,[2],"inconclusive: 48.6 µM [falling, partial curve]"
same,Potency,[3],inconclusive: 56.6 µM
CCCC(Cn1cncn1)c1ccc(Cl)cc1Cl (stereo not given),Potency,[1],active: 61.1 µM
same,Potency,[9],"inconclusive: 61.1 µM [cytotoxic, partial curve]"
same,Potency,[6],"inconclusive: 101 µM [cytotoxic, single point]"
CC(C)(C)C(O)C(Oc1ccc(Cl)cc1)n1cncn1 (stereo not given),Potency,[1],"inconclusive: 34.4 µM [activator, partial curve]"
same,activation,[7]; [10],inconclusive: 10.9%
same,Potency,[8],"inconclusive: 54.9 µM [cytotoxic, partial curve, poor fit]"
CC(C)(O)C(=O)Nc1ccc([N+](=O)[O-])c(C(F)(F)F)c1,Potency,[1],"inconclusive: 55.6 µM [activator, partial curve, poor fit] and inconclusive: 39.8 µM [activator, partial curve]"
same,Potency,[2],"inconclusive: 22.4 µM [falling, full curve]"
same,Potency,[6],active: 57.8 µM and active: 73.6 µM
N#CCCl,Potency,[1],inactive
same,Potency,[9],inactive
same,Potency,[6],"inconclusive: 132 µM [cytotoxic, single point]"
COC(=O)N(OC)c1ccccc1COc1ccn(-c2ccc(Cl)cc2)n1,Potency,[1],active: 24.3 µM
same,Potency,[2],active: 0.486 µM
same,Potency,[4],"inconclusive: 27.5 µM [falling, partial curve, poor fit]"
same,Potency,[6],active: 1.27 µM
O=C(O)C(Cl)(Cl)Cl,Potency,[1],"inconclusive: 59.6 µM [activator, partial curve, poor fit]"
same,activation,[7]; [10],inconclusive: -0.24%
Nc1ccc(Cl)c(Cl)c1,Potency,[1],"inconclusive: 55.7 µM [activator, partial curve, poor fit]"
same,Potency,[2],"inconclusive: 4.96 µM [falling, full curve]"
CCCN(CCCl)c1c([N+](=O)[O-])cc(C(F)(F)F)cc1[N+](=O)[O-],Potency,[1],"inconclusive: 43.3 µM [activator, partial curve]"
same,Potency,[2],inactive
same,Potency,[7]; [10],active: 1.93 µM
same,Potency,[4],inactive
same,Potency,[6],"inconclusive: 113 µM [cytotoxic, partial curve, poor fit]"
CCNc1nc(NC(C)C)nc(SC)n1,Potency,[1],"inconclusive: 69 µM [activator, single point]"
same,activation,[7]; [10],inconclusive: -0.679%
C#CCN1C(=O)COc2cc(F)c(N3C(=O)C4=C(CCCC4)C3=O)cc21,Potency,[1],active: 48.6 µM
same,Potency,[2],"inconclusive: 61.1 µM [falling, partial curve, poor fit]"
same,Potency,[7]; [10],inactive
same,Potency,[6],inactive
CCCCOC(=O)c1ccccc1C(=O)OCCCC,Potency,[1],"inconclusive: 61.1 µM [activator, single point]"
same,Potency,[7]; [10],"inconclusive: 27.3 µM [inhibitor, partial curve] and inconclusive: 273 nM [inhibitor, full curve, poor fit]"
CCCCC(C#N)(Cn1cncn1)c1ccc(Cl)cc1 (stereo not given),Potency,[1],"inconclusive: 60.9 µM [activator, partial curve]"
same,Potency,[2],"inconclusive: 54.3 µM [falling, partial curve, poor fit]"
same,Potency,[7]; [10],"inconclusive: 12.1 µM [inhibitor, partial curve] and inconclusive: 54.5 µM [inhibitor, partial curve]"
same,Potency,[3],inactive
same,Potency,[4],inactive
same,Potency,[6],"inconclusive: 126 µM [cytotoxic, partial curve, poor fit]"
CCc1ccc(C(=O)NN(C(=O)c2cc(C)cc(C)c2)C(C)(C)C)cc1,Potency,[1],"inconclusive: 61.1 µM [activator, single point]"
same,Potency,[7]; [10],active: 15.4 µM
CCCCCOC(=O)c1ccccc1C(=O)OCCCCC,Potency,[1],"inconclusive: 60.9 µM [activator, partial curve]"
same,Potency,[7]; [10],"inconclusive: 38.5 µM [inhibitor, partial curve, poor fit] and inconclusive: 13.7 µM [inhibitor, partial curve]"
COC(C)(C)CCC[C@H](C)C/C=C/C(C)=C/C(=O)OC(C)C,Potency,[9],inactive
same,Potency,[2],inactive
